Source: paper PMC12102759 (2025)

Biological target: N_(12-26) wild-type peptide
Assay: FP

B1: G3BP1 NTF2-like domain ([…]), tag cleaved, for FP (domain or fragment)
chain: not shown
  Kd: 2000 nM
